# Measurements as given in the supplement of paper PMC11417369.
# ± gives the standard deviation of the averaged measurements. The list shows a part of the results.
# Tested on: PfAP2-G AP2 domain (GST-tagged)
# Experiment: gcPBM binding intensity (ln(normalized median fluorescence intensity)); higher = stronger DNA binding
# How it was run: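 After 1 h on an Agilent 4 × 180k array of primer-extended double-stranded 36-bp intergenic genomic probes and negative controls, bound GST-tagged P. falciparum DNA-binding domains were detected with Alexa488 anti-GST antibody and scanned at 488 nm. The domains had been expressed in E. coli, and binding took place in 1× PBS with 1% milk, 0.2 mg/ml BSA, 0.5% salmon testes DNA and 0.03% Triton X-100. Binding intensity is the highest Masliner-normalised natural-log median intensity across replicate spots of either probe orientation.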
row,Sequence,gcPBM binding intensity (ln)
1,TGTGTTGTAACAAAATGTACGAGCTTGATGTAGAAT [XGTACX_site2293],10.8 ± 0.47
2,ATAAACTGATGTGTATGTACACATGTAATAATAAAT [XGTACX_site7649],11.4 ± 0.97
3,AATGTAGGTTTATTTACACACAAATATAAATATATA [CACACA_site1523],9.845 ± 0.035
4,AACTATTTTATTATATGTACTTACGAATTTATAAAA [XGTACX_site5262],11.3 ± 1
5,TAATATACATAATAATGTACATATTTTCATATATAC [XGTACX_site6913],11 ± 0.5
6,CACAAAATAAATTAAACACACAACATCAGATATGTA [CACACA_site6529],9.905 ± 0.078
7,ATTTAAATTATAAAATGTACATTTAACAAATTTTAT [XGTACX_site770],10.9 ± 0.59
8,TGTAATCTGGAGAAAAGTACACAGTATCTGGTAGCT [XGTACX_site2039],11.3 ± 0.86
9,TAACATTATATATATTGTACATAGTAAATATTATAT [XGTACX_site5421],10.6 ± 0.45
10,TATACAACGTTAAGCACACACAAAAAAAATTTAATA [CACACA_site3086],10 ± 0.18
11,ATATATGGGGCGCAGGAAAAGAGTTTTGGAAATAAA [CACACA_negctrl_site1265],10.16 ± 0.085
12,AAGTTATATAAAGGAACACACATTTGATTTTATTTT [CACACA_site6814],9.98 ± 0.11
13,TTTAATTATTAAATGGTGCACTTGAAATATAAAAAT,10.7 ± 0.65
14,CTTTTAATGGTGTAAAGTACTTTCTTAAGGTTCAAA [XGTACX_site8423],10.9 ± 0.49
15,TGGAGGTCAGTTCACAGTACCCAGAAAACTCTACGA [XGTACX_site2561],11 ± 0.62
16,AAAATGATGTTAATTACACACATCATCTCATAAACA [CACACA_site3017],9.8 ± 0.014
17,ATAAAACATAAAAATCGTACAAAGGAGGATATAAGG [XGTACX_site420],11.3 ± 0.94
18,ATTATTTATTATTTCTGTACGTATAAAAATAACATT [XGTACX_site1671],11.7 ± 1.1
19,ATATACTTACATATTACACACAATATTTTTAAATGT [CACACA_site3627],10.135 ± 0.007
20,CTAATCAAAATAAATTAACACACAATTTTAATATTG [CACACA_site7887],9.65 ± 0.27
21,AAAGTAAAAAAAAAAACATGCACATATTTACTTTAT [TGCATGCA_site849],9.77 ± 0.32
22,TTTTTTTTGGTTTTCATGCACACAATTTATAAATCT [CACACA_site3107],10.5 ± 0.29

row,Sequence,gcPBM binding intensity (ln)
1,AAGGGAATATACCTTACACACAAAAATGCAGATATA [CACACA_site1451],9.88 ± 0.028
2,GTTAATATACTTAATACACACACGAATATATATAAA [CACACA_site1181],10.2 ± 0.19
3,AAAAAAAAAAAGAAGGAAACATTTGACCAAAAATAT [GTGCAC_negctrl_site404],10.6 ± 0.28
4,ATTCTATACATATATATACACACGTAGTTTCTATTT [CACACA_site2223],10.02 ± 0.049
5,TTTTAAATATGCCATACACACTACTATATAATAAAT [CACACA_site5119],10.1 ± 0.12
6,AAAAAAAAAAAATATTGTAGAATATGATGACTTTGT [GTGCAC_negctrl_site554],9.58 ± 0.3
7,AACAACCAAAGGCACACACACAAAAAAAAAAATATA [CACACA_site399],10.2 ± 0.39
8,CTGCGTTTAATATGCGTGCACCTTGGTTTTATATCT [GTGCAC_site9525],10.4 ± 0.2
9,ATTTTATTTTCATATGAACACACATATATATATTAT [CACACA_site8741],10.19 ± 0.092
10,ACAAAACTGTCTTTCACACAGAAATAAAAAAAAAAA [CACACA_site5829],9.91 ± 0.38
11,TGATAAGGATGTGAATTACTCAAAGGAAGTAATCAT [CACACA_negctrl_site1432],9.895 ± 0.092
12,AAATTTCATGGGTATTGTACATAATTTTATTATATA [XGTACX_site4988],10.9 ± 0.62
13,ACATAAGATGAAAAATGTACATTCAAAAAATGAAAT [XGTACX_site3227],10.9 ± 0.72
14,AAAGTAAAAGAAAGCACACACACATGGATTTATGTA [CACACA_site5997],10.06 ± 0.035
15,TTCTTTTTAAATTACACACACATATATATATGTATA [CACACA_site3515],10.07 ± 0.085
16,AGATATTATTTATATATTTATATATATATATAGATA [TGCATGCA_negctrl_site77],9.54 ± 0.11
17,AGAGAAAAAAAAAATTGTACGTATGTAATAATATGC [XGTACX_site2981],11.3 ± 0.66
18,TAAATATCAAGACACACACACAAAAGTGAATAAATA [CACACA_site7723],10.1 ± 0.18
19,CCATGTAGTGAATAGGTGCATATCAAAAAAAAAAAA,10.1 ± 0.57
20,ATACATATGGTGGATCGTACATATATATAATATGTA [XGTACX_site8631],10.9 ± 0.4
21,ACAGAAAATAAAATTTGTACATATATAGAATAAAGA [XGTACX_site3014],10.8 ± 0.39
22,TATTTACACCCATGCGCACACATAAATAAATAATAG [CACACA_site5350],10.7 ± 0.52
